The other results are listed elsewhere or left out. Many values rest on one well or one pass, so single values are uncertain.
test system: mouse mesenchymal chondrosarcoma cells (HEY1-NCOA2); experiment: XTT absorbance relative to DMSO control (cell viability) (fraction of DMSO control); higher = more viable cells / less growth inhibition

Row | SMILES | XTT absorbance
1 | C[S+]([O-])c1ccc(-c2nc(-c3ccc(F)cc3)c(-c3ccncc3)[nH]2)cc1 (stereo not drawn) | 0.824
2 | CN(C)CCCCC(=O)Nc1ccc(NC(=S)NC(=O)c2ccc(C(C)(C)C)cc2)cc1 [Tenovin-6] | 0.747
3 | CC(C)C[C@@H](C=O)NC(=O)[C@H](CC(C)C)NC(=O)[C@H](CC(C)C)NC(=O)OCc1ccccc1 | 0.133

— the supplement of paper PMC10322689
